Measurements published in article PMC11911400, “Mechanism of ASF1 engagement by CDAN1” (Nature Communications, 2025).
No constants are given. Whether binding was seen depends on the method and setting. In cells and extracts the contact can be indirect. Some entries that bind do so weakly or less than the wild type.

Columns and labels:
[1] = molecular target: T1, Strep-CDAN1 BDA2* (S194A/R195A/R196A) (human) (UniProt Q8IWY9); assay: pull-down; Strep-Tactin pulldown of transiently transfected ST-CDAN1 variants from Flp-In 293 T-REx lysates; endogenous ASF1A, ASF1B and CDIN1 detected by immunoblotting; IP buffer with 1% Triton X-100, 1 hr at 4 °C
T1 sequence: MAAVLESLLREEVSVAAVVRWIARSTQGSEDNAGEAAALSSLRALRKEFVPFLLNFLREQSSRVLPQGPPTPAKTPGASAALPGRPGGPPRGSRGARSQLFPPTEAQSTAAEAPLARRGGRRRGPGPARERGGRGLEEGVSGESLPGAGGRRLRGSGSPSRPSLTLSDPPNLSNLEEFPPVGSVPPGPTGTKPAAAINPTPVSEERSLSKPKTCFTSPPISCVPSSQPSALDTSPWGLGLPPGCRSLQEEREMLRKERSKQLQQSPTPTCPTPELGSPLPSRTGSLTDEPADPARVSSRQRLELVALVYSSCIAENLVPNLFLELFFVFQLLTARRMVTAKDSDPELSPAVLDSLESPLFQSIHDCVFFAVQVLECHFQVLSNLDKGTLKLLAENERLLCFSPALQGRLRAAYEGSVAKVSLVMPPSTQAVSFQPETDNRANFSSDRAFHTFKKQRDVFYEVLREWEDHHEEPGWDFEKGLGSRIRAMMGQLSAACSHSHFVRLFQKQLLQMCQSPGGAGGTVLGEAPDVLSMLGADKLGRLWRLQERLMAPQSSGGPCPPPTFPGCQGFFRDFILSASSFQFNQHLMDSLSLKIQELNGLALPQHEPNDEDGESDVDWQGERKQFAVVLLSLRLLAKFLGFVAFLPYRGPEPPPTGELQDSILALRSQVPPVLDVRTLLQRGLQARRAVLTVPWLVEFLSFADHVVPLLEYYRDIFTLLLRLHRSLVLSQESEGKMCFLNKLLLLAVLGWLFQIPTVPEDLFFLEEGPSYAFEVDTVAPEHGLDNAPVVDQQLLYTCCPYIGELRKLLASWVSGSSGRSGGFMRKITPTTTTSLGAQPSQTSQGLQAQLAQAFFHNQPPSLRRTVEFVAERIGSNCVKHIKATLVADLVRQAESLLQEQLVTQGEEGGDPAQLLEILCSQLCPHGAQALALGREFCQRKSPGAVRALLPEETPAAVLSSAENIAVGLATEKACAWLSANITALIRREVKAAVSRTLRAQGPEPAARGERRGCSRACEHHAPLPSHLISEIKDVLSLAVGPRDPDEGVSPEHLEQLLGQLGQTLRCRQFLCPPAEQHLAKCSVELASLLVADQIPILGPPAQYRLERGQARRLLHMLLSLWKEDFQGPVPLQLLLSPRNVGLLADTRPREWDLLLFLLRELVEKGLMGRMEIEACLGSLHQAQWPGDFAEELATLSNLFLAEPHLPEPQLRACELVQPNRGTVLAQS

[2] = molecular target: T2, Strep-CDAN1 HMHA1* BDA1* BDA2* (three elements mutated) (human) (UniProt Q8IWY9); assay: as above
T2 sequence: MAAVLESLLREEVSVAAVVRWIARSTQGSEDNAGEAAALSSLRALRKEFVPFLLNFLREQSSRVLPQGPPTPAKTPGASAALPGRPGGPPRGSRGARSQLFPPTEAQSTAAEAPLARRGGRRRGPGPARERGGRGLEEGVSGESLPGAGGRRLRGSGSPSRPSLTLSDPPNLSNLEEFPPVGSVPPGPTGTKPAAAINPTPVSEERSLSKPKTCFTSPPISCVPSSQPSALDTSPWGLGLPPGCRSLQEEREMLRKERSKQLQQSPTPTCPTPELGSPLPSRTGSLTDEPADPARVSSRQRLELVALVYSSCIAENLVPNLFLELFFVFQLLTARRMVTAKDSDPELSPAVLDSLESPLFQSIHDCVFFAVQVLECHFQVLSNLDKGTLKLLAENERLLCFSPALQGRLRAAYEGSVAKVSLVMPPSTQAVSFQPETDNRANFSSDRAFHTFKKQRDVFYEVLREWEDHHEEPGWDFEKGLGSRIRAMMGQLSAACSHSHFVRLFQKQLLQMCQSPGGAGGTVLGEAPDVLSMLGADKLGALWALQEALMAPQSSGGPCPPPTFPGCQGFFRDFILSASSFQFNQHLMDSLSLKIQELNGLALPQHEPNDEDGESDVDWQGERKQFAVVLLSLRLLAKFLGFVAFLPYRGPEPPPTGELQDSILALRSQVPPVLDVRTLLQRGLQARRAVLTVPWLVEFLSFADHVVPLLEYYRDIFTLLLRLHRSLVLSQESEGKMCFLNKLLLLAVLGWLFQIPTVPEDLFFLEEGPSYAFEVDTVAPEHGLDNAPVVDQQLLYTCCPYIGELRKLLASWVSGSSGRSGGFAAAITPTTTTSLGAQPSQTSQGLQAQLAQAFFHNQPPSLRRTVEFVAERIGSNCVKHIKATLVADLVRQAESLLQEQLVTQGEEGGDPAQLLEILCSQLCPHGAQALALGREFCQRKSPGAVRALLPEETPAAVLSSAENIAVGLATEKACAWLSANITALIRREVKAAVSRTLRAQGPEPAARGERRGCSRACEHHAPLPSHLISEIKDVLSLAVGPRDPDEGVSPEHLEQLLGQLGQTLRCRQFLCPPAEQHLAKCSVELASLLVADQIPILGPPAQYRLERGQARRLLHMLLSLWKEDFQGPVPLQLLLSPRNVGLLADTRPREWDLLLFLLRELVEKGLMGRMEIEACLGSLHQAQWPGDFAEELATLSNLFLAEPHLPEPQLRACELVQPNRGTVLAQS

B1: FLAG-tagged CDIN1 (F-CDIN1) (natural protein, UniProt Q9Y2V0 1-281, looked up)
chain: MILTKAQYDEIAQCLVSVPPTRQSLRKLKQRFPSQSQATLLSIFSQEYQKHIKRTHAKHHTSEAIESYYQRYLNGVVKNGAAPVLLDLANEVDYAPSLMARLILERFLQEHEETPPSKSIINSMLRDPSQIPDGVLANQVYQCIVNDCCYGPLVDCIKHAIGHEHEVLLRDLLLEKNLSFLDEDQLRAKGYDKTPDFILQVPVAVEGHIIHWIESKASFGDECSHHAYLHDQFWSYWNRFGPGLVIYWYGFIQELDCNRERGILLKACFPTNIVTLCHSIA
notes: C15orf41); cDNA synthesized by IDT; source: Expi293, transiently transfected, in lysate and purified in complexes (anti-FLAG, Strep-Tactin); not shown: 3xFLAG, N-terminal, kept
[1]
  binding: binds
[2]
  binding: binds
